Source: PubChem BioAssay AID1963576 (National Center for Advancing Translational Sciences (NCATS), 2024)
Among all 46,000 compounds or so, about 60 (0.1%) were called active. Roughly 3% stayed inconclusive and do not appear here. Calls follow the shape of the dose curve; as a rule, active = well fitted inhibition curve with a large enough effect; inconclusive = small, poorly fitted or top-dose-only effect; inactive = no such curve, though single readings can be large or run the other way. This is one part of the list.

Assay: Primary qHTS assay for Inhibitors of ovarian cancer metastasis using an organotypic tumor microenvironment (TME) model. Also: nearly all actives have a fitted effect of over 65% in size.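 As to activity change, negative = inhibition: plate controls were DMSO wells for no effect and tomatine positive control wells for full effect.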
Details: SKOV3ip1-GFP adhesion/invasion on 3D omental model, fluorescence; series mostly up to 45.8 µM; activity change, negative = inhibition: at the top concentration
Procedure, shortened: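 Adhesion/invasion was scored as fixed GFP-labeled SKOV3ip1 cell counts (488/509 nm), normalized to DMSO and tomatine controls. Cancer cells in serum-free medium, with four compound doses (0.36-46 umol/L), sat 2 hr at RT then 16 hr at 37 C on a 48 hr fibroblast/mesothelial/ECM culture.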

Activity change, negative = inhibition, inactive:
Cc1c(CC(=O)NCCc2ccccc2F)c(=O)oc2cc(O)c(Cl)cc12 -21.3%
CCN(CCCNC(=O)c1cc(Nc2ccc(OC)cc2OC)nc2ccccc12)c1cccc(C)c1 -5.32%
Cc1ccc(CCNC(=O)c2c(C)oc3nc(C)nc(N4CCOCC4)c23)cc1 0.409%
O=c1oc2c(CN3CCCC3)c(O)ccc2cc1-c1ccccc1 5.06%
CCOCCCNC(=O)c1c(NC(=O)c2cc(=O)c3ccccc3o2)sc2c1CCC2 -16.4%
COc1ccccc1N1CCN(C(=O)Nc2cn(CC(C)C)c(=O)c3ccccc23)CC1 -1.08%
Cc1cccc(Cn2c(=O)n(Cc3ccc4c(c3)OCO4)c(=O)c3oc4ccccc4c32)c1 9.97%
Cc1ccc(S(=O)(=O)C(CNC(=O)Cc2ccc(Cl)cc2)c2cccs2)cc1 (configuration not stated) -1.79%
COc1ccc(NC(=O)c2c(NCc3cccs3)sc3c2CCCC3)cc1 -10.5%
Cc1ccc2c(=O)cc(C(=O)Nc3c(C(=O)Nc4cccc(Cl)c4)oc4ccccc34)oc2c1 6.14%
CC(C)c1ccc(NC(=O)Nc2csc3c2CCCC3)cc1 -0.463%
O=C(Nc1ccc(C(=O)OCc2cc(=O)n3c4c(sc3n2)CCCC4)cc1)c1ccc(Cl)cc1 -27.3%
CCOC(=O)c1ccc(NC(=O)Cn2ncc3c(C)n(Cc4ccccc4F)c(C)c3c2=O)cc1 -11.8%
Cn1cc(C(c2ccccc2)c2ccc(Cl)s2)c2ccccc21 (configuration not stated) -18.3%
Cc1ccc(N2C(=O)CSC23C(=O)N(CC(=O)NC2CCCCC2)c2ccccc23)cc1C (configuration not stated) -3.11%
CCOc1ccccc1NC(=O)CN1C(=O)COc2ccc(S(=O)(=O)N3CCCCC3)cc21 -9.26%
CCOc1cccc(NC(=O)C2CC(=O)N(C)C(=Nc3ccc(F)cc3)S2)c1 (configuration not stated) 2.44%
CSc1ncc(C(=O)NCc2ccc(C)cc2)c(-c2ccccc2)n1 3.12%
CCOC(=O)c1c(C)oc2ncnc(Nc3cc(Cl)ccc3OC)c12 -15.1%
O=C(c1cccn1-c1nnc(N2CCCCC2)s1)N1CCN(c2ccccc2)CC1 -3.1%
Clc1cccc(CSc2ccc(-c3cccs3)nn2)c1 6.51%
COc1ccccc1Cn1c(SCC(=O)C(C)(C)C)nc2ccccc2c1=O 4.87%
CCOc1ccccc1CNC(=O)CCCN1C(=O)c2cccnc2Oc2ccc(Cl)cc21 -4.73%
CCOC(=O)c1c(C)oc2nc(C)nc(N3CCN(c4ccc(OC)cc4)CC3)c12 6.49%
CCNC(=O)C1CCN(Cc2cc3ccccc3n2Cc2ccc(C)cc2)CC1 -9.14%
CC(C)C[C@H](NC(=O)[C@H](Cc1ccccc1)NC(=O)c1cnccn1)B(O)O -20%
Cc1oc(-c2cccc(Cl)c2)nc1CSCC(=O)NCc1ccccc1Cl 9.43%
CCOC(=O)C1CCN(C(=O)Cn2ncc3c4ccccc4n(C)c3c2=O)CC1 1.79%
N#Cc1ccc(CSc2nnc(-c3ccc(Br)cc3)o2)cc1 29.8%
CCS(=O)(=O)c1ccccc1C(=O)N1CCN(c2nc3ccccc3s2)CC1 -8.46%
CCn1c(=O)c2sccc2n2c(CCC(=O)NCc3ccc(Cl)cc3)nnc12 6.03%
CCCCNC(=O)Cn1cnc2sc(C)c(S(=O)(=O)N3CCN(c4ccccc4OC)CC3)c2c1=O 3.9%
Cc1cccc(NC(=O)c2cc3c(=O)n4ccccc4nc3n2C)c1C -9.24%
COc1ccccc1NC(=O)c1ncoc1-c1ccco1 -11.3%
CC(C)OCCCNC(=O)CN1C(=O)COc2ccc(S(=O)(=O)N3CCOCC3)cc21 -6.46%
Cc1csc2nc(COC(=O)c3ccc(NC(=O)C(C)C)cc3)cc(=O)n12 4.55%
Cc1ccc(OCC(=O)Nc2sc3c(c2C(N)=O)CCCC3)c(C(C)(C)C)c1 0.955%
COCCNC(=O)c1ccc(-c2nc(CN3CCc4ccccc43)c(C)o2)cc1 1.6%
Cc1ccc(-n2c(SCC(=O)Nc3ccc4c(c3)OCCO4)nc3c([nH]c4ccccc43)c2=O)cc1 -0.911%
CCOc1ccccc1C(=O)N(Cc1ccco1)Cc1ccccc1F -1.51%
Cc1ccc(C(=O)Nc2ccc(Br)cc2)cc1S(=O)(=O)NCc1ccccc1 -10.4%
COC(=O)c1ccccc1NC(=O)CSc1nc2nc(C)cc(C)n2n1 6.4%
CCOc1ccc2nc(NC(=O)c3ccccc3)sc2c1 0.0812%
CCOc1ccc(NC(=O)C(=O)NCCc2ccccc2)cc1 26.9%
CCc1ccc(S(=O)(=O)Nc2cc3c(cc2N2CCOCC2)n(C)c(=O)c(=O)n3C)cc1 15.2%
O=c1c(N2CCCCC2)csc2ccc(F)cc12 13.8%
CCOc1ccc(NC(=O)CC2C(=O)N(c3ccccc3)C(=O)N2Cc2cccc(OC)c2)cc1 (configuration not stated) 8.21%
COCCCNC(=O)c1nn(-c2ccc(C)cc2)c(=O)n(C)c1=O 5.61%
O=C(c1cnc(N2CCCCC2)c2ccccc12)N1CCN(c2cccc(Cl)c2)CC1 5.25%
COc1ccc(C)cc1NC(=O)N1CCN(c2nnc(C)c3c(C)n(-c4ccccc4)nc23)CC1 -9.43%
O=C1C(c2c(O)[nH]c3ccccc23)=Nc2ccccc21 -11.6%
CCNC(=O)c1c2c(nc3ccccc13)C(=O)N(C1CCCCC1)C2 2.24%
Cc1ccc(CN2C(=O)c3ccccc3Sc3ccc(C(=O)NC4CCCC4)cc32)cc1 -2.41%
CCCCNc1sc(S(=O)(=O)CCC)nc1S(=O)(=O)c1ccc(C)cc1 3.55%
COc1ccc(Cl)cc1C1CC(=O)Nc2cc3c(cc21)OCCO3 (configuration not stated) -7.56%
CCOc1ccccc1NC(=O)CCc1c(C)nc2c3cccnc3nn2c1C -10.7%
CCc1cccc(NC(=O)Cn2ncc3c([nH]c4ccc(C)cc43)c2=O)c1 3.98%
CCc1cccc(NC(=O)CN(c2ccc(C)cc2)S(=O)(=O)c2cccs2)c1 -18.3%
CS(=O)(=O)c1ccc(C(=O)Nc2ccc(Cl)c(-c3ccccn3)c2)c(Cl)c1 -5.41%
COc1cccc(C(=O)NCCc2csc(-c3cccc(F)c3)n2)c1OC 4.28%
Cc1ccc(C(=O)N2CCc3cc(CNC(=O)CCc4ccccc4)ccc32)cc1 -4.5%
O=C(NC1CC(=O)N(c2ccccc2)C1)c1ccco1 (configuration not stated) 6.58%
CC1(C)CC(=O)c2cc(-c3nc(-c4ccc(Cl)cc4)cs3)c(=O)n(-c3cccc(F)c3)c2C1 -0.0567%
CC1(C)CCC(c2ccc(Cl)cc2)=C(CN2CCN(c3ccc(C(=O)NS(=O)(=O)c4ccc(N[C@H](CCN5CCOCC5)CSc5ccccc5)c(S(=O)(=O)C(F)(F)F)c4)cc3)CC2)C1 -5.23%
COc1cc(C)ccc1OCCSc1nc2ccc(NC(=O)c3ccc(C)cc3)cc2s1 5.29%
COc1ccccc1NC(=O)CCn1cnc2onc(-c3ccc(F)cc3)c2c1=O -0.925%
CCCSc1nnc2c(n1)OC(c1ccc(OCC(=O)O)cc1)Nc1ccccc1-2 (configuration not stated) 5.49%
CC(=O)c1cccc(Nc2nn(-c3ccc(OC(F)(F)F)cc3)nc2C(C)=O)c1 -5.78%
Cc1c(C(=O)N(Cc2ccc(N(C)C)cc2)Cc2ccco2)oc2cc(Br)ccc12 7.37%
Cn1cc(C(=O)NCCc2ccccc2)c(=O)c2cc(S(=O)(=O)N3CCCCCC3)ccc21 -5.2%
COc1ccc(CNC(=O)CCc2c(C)nc3nc(CNC(=O)OC(C)(C)C)nn3c2C)cc1 -1.84%
COc1ccc(-c2ccc(CCC(=O)O)n2CC(=O)Nc2cccc(Cl)c2C)cc1 3.11%
Cc1cc(C)cc(NC(=O)C(=O)NCC(c2cccnc2)N2CCN(c3ccccc3)CC2)c1 (configuration not stated) 4.17%
CCOc1ccc(N(C(C)C(=O)NCCSc2ccc(C)cc2)S(C)(=O)=O)cc1 (configuration not stated) 2.12%
COc1cccc(C(c2sc3nc(-c4ccco4)nn3c2O)N2CCN(c3ccccc3F)CC2)c1 (configuration not stated) -7.42%
CCc1cc2c(cc3c(=O)n(CC(=O)NC4CCCCC4)ncn32)s1 -1.23%

outcome, inactive:
Cn1cc(-c2cc3n(n2)CCC(=O)N3CC(=O)NCc2ccc(Cl)cc2)c2ccccc21
CC(C)C(=O)Nc1cccc(C(=O)Nc2nnc(CC(C)(C)C)s2)c1
CCOc1ccc(CNC(=O)c2ccc3c(c2)nnn3C2CCCC2)cc1
CCc1ccccc1NC(=O)c1cc2nc(-c3ccc(OC)c(OC)c3)cc(C(F)(F)F)n2n1
COc1cc2ccccc2cc1C(=O)Nc1ccc2oc(-c3ccc(Cl)cc3)nc2c1
COC(=O)c1ccc(NC(=O)Cn2c(=O)nc(-c3ccccc3)c3ccccc32)cc1
O=C(c1ccc(Br)s1)N(Cc1cccnc1)c1nc2ccc(F)cc2s1
Cc1ccc(CNC(=O)C2CCN(S(=O)(=O)c3c(C)noc3/C=C/c3c(C)cc(C)cc3C)CC2)cc1
Cc1ccc2nc(COc3ccccc3NC(=O)COc3ccccc3Cl)cc(=O)n2c1
COC(=O)CN1C(C(=O)c2ccccc2)=C(OC(=O)c2ccc(C)cc2)c2ccccc2S1(=O)=O
COc1ccc(CNC(=O)CCCN2C(=O)c3cccnc3Oc3ccc(Cl)cc32)cc1
Cc1cccc(NS(=O)(=O)c2nnc(NC(=O)c3cccc(C)c3)s2)c1
O=C(Cn1ncc2c3ccccc3n(Cc3ccccc3F)c2c1=O)NCCCc1ccccc1
CCc1nc2ccc(C(=O)NCc3cccc(Br)c3)cc2nc1CC
Cc1cc(C)cc(NC(=O)CCCn2c(=O)c3cccn3c3ccccc32)c1
O=C(Cn1c(=O)n(CCCS(=O)(=O)C2CCCCC2)c(=O)c2ccccc21)Nc1ccc(F)c(Cl)c1
O=C(Cn1c(SCc2ccccc2F)nc2cccnc21)Nc1ccc(F)c(Cl)c1
O=C(Nc1ccc(F)cc1)Nc1ccc2snnc2c1
O=C(CN1C(=O)CC(c2ccco2)Sc2ccccc21)Nc1ccc(Br)cc1 (configuration not stated)
COc1ccccc1-c1noc(-c2ccc(NCc3cccnc3)c([N+](=O)[O-])c2)n1
CCCCn1cc(S(=O)(=O)c2ccc(CC)cc2)c(=O)c2cc(F)c(N3CCOCC3)cc21
